Measurements as given in PubChem BioAssay AID2147 (National Center for Advancing Translational Sciences (NCATS), 2009).
Out of some 230,000 compounds screened, about 3,600 (1.6%) were called active. Inconclusive results, whose numbers are uncertain, are shown with a selection of clear calls. Calls come from the whole dose curve; as a rule, active = well fitted inhibition curve with a large enough effect (not every such curve was filed as active); inconclusive = small, poorly fitted or top-dose-only effect, or another doubt; inactive = no such curve, though single readings can be large or run the other way. A potency beside an inconclusive call is a rough fit, not a confirmed value.

Each molecule was assayed against Lysine-specific demethylase 4E (Homo sapiens) (UniProt B2RXH2) (assay: qHTS Assay for Inhibitors of Human Jumonji Domain Containing 2E (JMJD2E)). Details: JMJD2E catalytic domain, FDH-coupled NADH fluorescence (FDH is formaldehyde dehydrogenase); series mostly up to 57.1 µM.
Note: nearly all actives have a fitted effect of over 50% in size.
Potency is the fitted concentration of half-maximal effect; tags give direction and shape of the fitted curve.

Sequence of UniProt B2RXH2 (B2RXH2 whole entry, looked up, the tested form may be a part): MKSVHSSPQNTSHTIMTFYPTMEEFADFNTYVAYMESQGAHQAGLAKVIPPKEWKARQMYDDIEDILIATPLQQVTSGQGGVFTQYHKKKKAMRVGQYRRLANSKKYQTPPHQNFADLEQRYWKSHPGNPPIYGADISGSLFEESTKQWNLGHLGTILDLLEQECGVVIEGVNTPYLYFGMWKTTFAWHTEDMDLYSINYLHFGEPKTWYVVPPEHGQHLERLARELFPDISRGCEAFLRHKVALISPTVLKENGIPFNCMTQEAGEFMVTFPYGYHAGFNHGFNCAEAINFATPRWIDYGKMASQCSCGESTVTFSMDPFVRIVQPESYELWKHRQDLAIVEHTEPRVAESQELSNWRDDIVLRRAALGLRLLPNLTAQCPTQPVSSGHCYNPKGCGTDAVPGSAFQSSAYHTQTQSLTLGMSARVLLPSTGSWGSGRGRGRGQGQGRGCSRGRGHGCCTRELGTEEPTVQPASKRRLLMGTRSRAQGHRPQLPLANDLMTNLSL

| Compound | Potency |
| --- | --- |
| O=C(c1ccco1)N1C(=O)c2cccc3cccc1c23 | inconclusive: 35.5 µM [inhibitor, single point] |
| COCCNC(=O)c1cc2sc3ccccc3c2s1 | inconclusive: 25.1 µM [inhibitor, single point] |
| O=C(O)c1cn(-c2ccc(N3CCCC3)c(F)c2)c2c(F)c(F)c(F)cc2c1=O | inconclusive: 35.5 µM [inhibitor, single point] |
| Fc1cccc(CN2CCN(c3nc4nonc4nc3NC3CC3)CC2)c1 | inactive |
| CC1=C(C)CC(C(=O)Nc2cccc(Cl)c2)C(C(=O)O)C1 (stereo not drawn) | inconclusive: 39.8 µM [inhibitor, single point] |
| CN(C)CCNC(=O)Nc1ccc([N+](=O)[O-])cc1 | inactive |
| Cc1cccc(/C(N)=N/OC(=O)c2ccc(Cl)cc2Cl)c1 | inactive |
| O=C(c1ccccc1Cl)N1CCN(c2ccccn2)CC1 | inconclusive: 31.6 µM [inhibitor, single point] |
| O=c1c2ccccc2nc2c3ccccc3ncn12 | inconclusive: 3.16 µM [inhibitor, full curve] |
| Cc1ccc(NC(=S)N(CCN2CCOCC2)Cc2cc3cc4c(cc3[nH]c2=O)OCCO4)cc1 | inconclusive: 35.5 µM [inhibitor, partial curve] |
| COc1cc2[nH]c3c(N4CCN(c5ccc(Cl)cc5)CC4)ncnc3c2cc1OC | inconclusive: 31.6 µM [inhibitor, partial curve] |
| CS(=O)(=O)Nc1ccccc1C(=O)Nc1ccccc1Cl | inconclusive: 25.1 µM [inhibitor, partial curve] |
| CCN(CC)CCCNC(=O)c1cn(CCOC)c(=O)c2c1c1ccccc1n2C | inconclusive: 31.6 µM [inhibitor, partial curve] |
| O=C1C(Cl)=C(Nc2cccc(O)c2)C(=O)N1Cc1ccccc1 | inactive |
| CCOc1cccc(C(=O)Nc2ccc3oc(-c4cccnc4)nc3c2)c1 | inconclusive: 35.5 µM [inhibitor, partial curve] |
| CC(=C/c1ccc(C(C)C)cc1)/C=N/NC(=O)c1ccncc1 | inconclusive: 35.5 µM [inhibitor, single point] |
| O=C(C(=O)N1CCN(c2ccccc2F)CC1)c1c[nH]c2ccccc12 | inactive |
| Cc1ccc(N2C(=O)[C@@H]3[C@H](C2=O)[C@H]2C=CC=NN2[C@@H]3C(=O)Nc2ccccc2)cc1 | inactive |
| O=C(O)CCc1nn2c3ccccc3n(CCN3CCCCC3)c2nc1=O | inconclusive: 31.6 µM [inhibitor, partial curve] |
| CCCOc1ccc(C(=O)CCN2CCN(C(=O)OCC)CC2)cc1 | inactive |
| CNc1nnc(-c2ccc(N(C)C)cc2)s1 | inconclusive: 28.2 µM [inhibitor, partial curve] |
| Clc1cccc(N/N=C/c2ccc(N3CCOCC3)s2)c1 | active: 11.2 µM |
| O=C(O)CC(C(=O)O)N1C(=O)/C(=C/C=C/c2ccco2)SC1=S (stereo not drawn) | active: 11.2 µM |
| CCCC1(C(=O)OCC)NC(c2ccc(O)cc2)C2C(=O)N(c3ccc4c(c3)OCCO4)C(=O)C21 (stereo not drawn) | inactive |
| Cc1noc2ncnc(N3CCCCC3)c12 | inactive |

| Compound | Potency |
| --- | --- |
| COCCNc1nc(C)nc2c1nc(-c1ccccc1)n2CCN(C)C | inconclusive: 28.2 µM [inhibitor, partial curve] |
| O=C(/C=C/c1ccccc1)n1cnnc1SC/C=C/c1ccccc1 | inactive |
| C=CCOC(=O)N[C@H](c1cccc(C(F)(F)F)c1)C(C(C)=O)C(C)=O | inactive |
| Cc1ccc(SCC(=O)Nc2ccc(F)cc2[N+](=O)[O-])cc1C | inactive |
| COc1cc(CNCCc2ccc(S(N)(=O)=O)cc2)ccc1OCc1ccc(Cl)cc1 | inactive |
| O=C(Cn1cc[n+](Cc2ccccc2)c1)c1ccc([N+](=O)[O-])cc1 | inactive |
| CC(=O)c1cc2c(cc1NC(=O)CN1CCCCC1C)OCO2 (stereo not drawn) | inconclusive: 25.1 µM [inhibitor, single point] |
| O=c1[nH]c2ccccc2nc1-c1ccc(Cl)cc1 | inconclusive: 12.6 µM [inhibitor, partial curve] |
| OCCN(Cc1ccccc1)Cc1ccc(Cl)cc1Cl | inconclusive: 39.8 µM [inhibitor, single point] |
| N#CCSc1ncccc1-c1nc2ccccc2[nH]1 | inconclusive: 35.5 µM [inhibitor, single point] |
| c1csc(-c2nc3ccccn3c2NC2CCCCC2)c1 | inconclusive: 20 µM [inhibitor, partial curve] |
| CC(=O)NCCNc1nc(-c2ccc(N(C)C)cc2)nc2ccccc12 | inconclusive: 25.1 µM [inhibitor, partial curve] |
| CCCCCCCC/C=C\CCCCCCCC(=O)NCCO | inactive |
| Cc1csc(SCC(=O)NC23CC4CC(CC(C4)C2)C3)n1 | inactive |
| COC(=O)c1c[nH]n2c(=O)cc(CCl)nc12 | inconclusive: 35.5 µM [inhibitor, single point] |
| COc1cc2c3nnc(-c4ccc(F)cc4)c-3cn(Cc3ccccc3F)c2cc1OC | inconclusive: 3.55 µM [inhibitor, full curve] |
| Cc1ccc(C2NC(=O)c3c(sc4c3CCN(C)C4)N2)o1 (stereo not drawn) | inconclusive: 25.1 µM [inhibitor, partial curve] |
| COC(=O)c1cn(C(=O)c2ccc(Br)o2)c2ccccc12 | inactive |
| COC(=O)c1ccccc1NC(=O)CNc1cc(Cl)ccc1N1CCOCC1 | inconclusive: 39.8 µM [inhibitor, single point] |
| O=C(c1cc(-c2ccccn2)nc2ccccc12)N1CCN(c2ncccn2)CC1 | inactive |
| COC(=O)c1cc(NS(=O)(=O)c2ccc(C(C)C)cc2)ccc1N1CCOCC1 | inconclusive: 35.5 µM [inhibitor, single point] |
| O=C(O)c1cccn2c(=O)c3ccccc3nc12 | inconclusive: 25.1 µM [inhibitor, partial curve] |
| CCCc1cnc(N2CCN(S(=O)(=O)c3cccs3)CC2)nc1 | inconclusive: 28.2 µM [inhibitor, single point] |
| Cc1ccc2[nH]c3c(c2c1)CN(C(=O)CN1CCCc2ccccc21)CC3 | inconclusive: 35.5 µM [inhibitor, single point] |
| CC(=O)c1ccc2c(c1)Nc1ccccc1S2 | inactive |

| Compound | Potency |
| --- | --- |
| NC(=O)COC(=O)c1sc2ccccc2c1Cl | inconclusive: 39.8 µM [inhibitor, single point] |
| C[C@H](CO)NC(=O)[C@H](C)[C@@H]1C[C@@]1(C)[C@@H](NC(=O)OCc1ccccc1)c1ccccc1 | inactive |
| Cc1cccc(-n2c(SCC(N)=O)nc3c(c2=O)C2(CCCCC2)Cc2ccccc2-3)c1 | inconclusive: 28.2 µM [inhibitor, single point] |
| CCOC(=O)Nc1ccc2c(COC(=O)CNS(=O)(=O)c3ccc(NC(C)=O)cc3)cc(=O)oc2c1 | inconclusive: 12.6 µM [inhibitor, partial curve] |
| COc1cccc(Oc2c(C)oc3c(CN4CCCC4)c(O)ccc3c2=O)c1 | inconclusive: 31.6 µM [inhibitor, partial curve] |
| CCOc1ccc(-c2nnc3n2N=C(c2ccc(OC)cc2)CS3)cc1 | inactive |
| Cc1ccc(-c2ccc3nnc(SCC(N)=O)n3n2)cc1 | inconclusive: 1.12 µM [inhibitor, full curve] |
| Cc1cccc(N2CCN(Cc3nc(-c4ccc(F)cc4F)oc3C)CC2)n1 | inconclusive: 35.5 µM [inhibitor, single point] |
| O=C(NCC1OCCc2ccccc21)c1ccc(NC(=O)c2ccc(Cl)cc2)cc1 (stereo not drawn) | inconclusive: 39.8 µM [inhibitor, single point] |
| CCCCCC(=O)C(=O)c1ccc(O)cc1O | inconclusive: 31.6 µM [inhibitor, single point] |
| c1ccc2oc(-c3[nH]ncc3CN3CCSCC3)cc2c1 | inactive |
| Cc1ccc(-n2ncc3c(=O)n(CC(=O)N4CCCc5ccccc54)cnc32)cc1C | inconclusive: 35.5 µM [inhibitor, single point] |
| COc1ccc(OC)c(N)c1 | inactive |
| Clc1cccc(Nc2ncnc3ccc(Br)cc23)c1 | inconclusive: 39.8 µM [inhibitor, single point] |
| O=C(O)CCCNc1cc(N2CCC3(CC2)OCCO3)c2noc3c2c1C(=O)c1ccccc1-3 | inconclusive: 22.4 µM [inhibitor, single point] |
| O=C(CSc1ccc(-c2ccccn2)nn1)N1CCCc2ccccc21 | inconclusive: 39.8 µM [inhibitor, single point] |
| CC(C)COC(=O)/C(C#N)=C/c1cn(Cc2ccccc2)c2ccccc12 | inconclusive: 22.4 µM [inhibitor, single point] |
| Cc1cc(NC(=O)Cn2c(=O)n(Cc3ccccc3)c(=O)c3ccccc32)no1 | inactive |
| O=c1oc(-c2ccco2)nc2sc3c(c12)CCCCC3 | inconclusive: 39.8 µM [inhibitor, single point] |
| O=C(NCc1cccc(F)c1)C1CCN(C(=O)c2sccc2-n2cccc2)CC1 | inactive |
| NC(=O)N/N=C/c1coc2ccc(O)cc2c1=O | inconclusive: 39.8 µM [inhibitor, single point] |
| CCC1=C(OC(=O)N(CC)CC)N2C(=O)OC(=NCC(=O)OC)[C@]2(Cc2ccccc2)[C@H]2C1=CC[C@H]1C(=O)N(CC(=O)OC)C(=O)[C@H]12 | inconclusive: 39.8 µM [inhibitor, single point] |
| CCOC(=O)Oc1c(OC)cc(C(=O)O[C@H]2C[C@H]3CN4CCc5c([nH]c6cc(OC)ccc56)[C@@H]4C[C@H]3[C@@H](C(=O)OC)[C@@H]2OC)cc1OC | inconclusive: 15.8 µM [inhibitor, single point] |
